Experimental data reported in publication PMC11995724, “Antibiotic target discovery by integrated phenotypic and activity-based profiling of electrophilic fragments” (Cell chemical biology, 2025).
The whole screen tested about 3,200 compounds, of which about 110 (3.4%) showed an effect of 50% or more. The list shows a part of the results.

Test system: T1, V. cholerae SAD30
T1 construct: SAD30
Set-up: species or system S. aureus MSSA476 (TSB) or V. cholerae SAD30 (LB); 384-well bacterial growth screen at 25 uM, OD600 relative to DMSO control
Details: relative growth, OD600, LB; 25 µM; inhibitor

| Structure (SMILES) | % of control remaining |
| --- | --- |
| CN1C=C(C(F)(F)F)C=CC1=C(C#N)C(=O)Nc1ccccc1F [8-H20, 2-cyano-N-(2-fluorophenyl)-2-[1-methyl-5-(trifluoromethyl)-1,2-dihydropyridin-2-ylidene]acetamide] | 66.9613% |
| Cc1cc(C(=O)CCl)c(C)n1-c1ccc2c(c1)OCO2 [10-K14, 1-[1-(1,3-dioxaindan-5-yl)-2,5-dimethyl-1H-pyrrol-3-yl]-2-chloroethan-1-one] | 102.552% |
| Cc1cc(CO[C@H]2CC[C@H](NC(=O)CCl)CC2)on1 [6-K19, 2-chloro-N-[(1r,4r)-4-[(3-methyl-1,2-oxazol-5-yl)methoxy]cyclohexyl]acetamide] | 92.9756% |
| C=CC(=O)Nc1cc(CC(C)(C)C)no1 [1-I19, N-[3-(2,2-dimethylpropyl)-1,2-oxazol-5-yl]prop-2-enamide] | 92.9746% |
| N#CC(=Cc1ccco1)C(=O)NC1CC1 [8-N21, 2-cyano-N-cyclopropyl-3-(furan-2-yl)prop-2-enamide] | 77.9742% |
| N#Cc1cc([N+](=O)[O-])ccc1NC(=O)CCl [4-O09, 2-chloro-N-(2-cyano-4-nitrophenyl)acetamide] | 91.611% |
| COC(=O)c1c(C(=O)CCl)c(C)n(C(C)C)c1C [10-K21, methyl 4-(2-chloroacetyl)-2,5-dimethyl-1-(propan-2-yl)-1H-pyrrole-3-carboxylate] | 96.9414% |
| Cc1cc(F)c(C(=O)CCl)cc1F [10-L19, 2-chloro-1-(2,5-difluoro-4-methylphenyl)ethan-1-one] | 32.7294% |
| Cc1ccccc1N(CC(=O)N1CCCCC1)C(=O)C(C)Cl (stereo not drawn) [7-G20, 2-chloro-N-(2-methylphenyl)-N-[2-oxo-2-(piperidin-1-yl)ethyl]propanamide] | 76.2597% |
| O=C(CCl)NCC1(c2ccccc2)CC1 [5-E15, 2-chloro-N-[(1-phenylcyclopropyl)methyl]acetamide] | 92.8024% |
| C=CC(=O)NCc1csc2nccn12 [3-J13, N-({imidazo[2,1-b][1,3]thiazol-3-yl}methyl)prop-2-enamide] | 88.5609% |
| C=CC(=O)N1CCC(C(=O)Nc2nc3cc(F)ccc3n2CC)CC1 [3-I13, N-(1-ethyl-5-fluoro-1H-1,3-benzodiazol-2-yl)-1-(prop-2-enoyl)piperidine-4-carboxamide] | 79.2097% |
| C=CC(=O)N1CCC(Cc2ccccc2)CC1 [2-O10, 1-(4-benzylpiperidin-1-yl)prop-2-en-1-one] | 81.8585% |
| C=CC(=O)NCC1CNC(=O)c2ccccc21 (stereo not drawn) [2-F17, N-[(1-oxo-1,2,3,4-tetrahydroisoquinolin-4-yl)methyl]prop-2-enamide] | 90.0415% |
| CC(C)Cc1nnc(NC(=O)CCl)s1 [4-A17, 2-chloro-N-[5-(2-methylpropyl)-1,3,4-thiadiazol-2-yl]acetamide] | 116.455% |
| CC(Cl)C(=O)N1CCc2ncsc2C1 (stereo not drawn) [7-C06, 2-chloro-1-{4H,5H,6H,7H-[1,3]thiazolo[5,4-c]pyridin-5-yl}propan-1-one] | 80.8855% |
| C=CC(=O)N[C@@H](CC(N)=O)c1cccc(Cl)c1 [1-I15, N-[(1S)-2-carbamoyl-1-(3-chlorophenyl)ethyl]prop-2-enamide] | 89.5366% |
| COc1ccc(C=C(C#N)C(=O)Nc2ccc([N+](=O)[O-])cc2)cc1 [8-C05, 2-cyano-3-(4-methoxyphenyl)-N-(4-nitrophenyl)prop-2-enamide] | 82.189% |
| CCCC(=O)N1CCC(NC(=O)CCl)c2ccccc21 (stereo not drawn) [6-E16, N-(1-butanoyl-1,2,3,4-tetrahydroquinolin-4-yl)-2-chloroacetamide] | 88.5771% |
| O=C1C=CC(=O)N1c1ccc(Oc2ccccc2)cc1 [10-F17, 1-(4-phenoxyphenyl)-2,5-dihydro-1H-pyrrole-2,5-dione] | 26.1835% |
| O=C(CCl)NCCc1cccs1 [5-L09, 2-chloro-N-[2-(thiophen-2-yl)ethyl]acetamide] | 105.075% |
| N#CC(=Cc1cccc2ccccc12)C(=O)NCc1ccccc1 [8-O19, N-benzyl-2-cyano-3-(naphthalen-1-yl)prop-2-enamide] | 62.0666% |
| N#CC(=Cc1cccc(F)c1)C(=O)NCCc1ccccc1 [8-J22, 2-cyano-3-(3-fluorophenyl)-N-(2-phenylethyl)prop-2-enamide] | 73.0795% |
| CC(C)N(c1ccccc1)c1ccc(NC(=O)CCl)cc1 [6-I17, 2-chloro-N-{4-[phenyl(propan-2-yl)amino]phenyl}acetamide] | 89.7905% |
| N#CC(=Cc1cccs1)C(=O)Nc1cccc2ncccc12 [8-D20, 2-cyano-N-(quinolin-5-yl)-3-(thiophen-2-yl)prop-2-enamide] | 71.584% |
| CC(Cl)C(=O)NCC(=O)Nc1ccc(F)c(F)c1F (stereo not drawn) [4-D20, 2-chloro-N-{[(2,3,4-trifluorophenyl)carbamoyl]methyl}propanamide] | 102.48% |
| COC(=O)c1c(C)[nH]c(C(=O)C(C)Cl)c1C (stereo not drawn) [10-D22, methyl 5-(2-chloropropanoyl)-2,4-dimethyl-1H-pyrrole-3-carboxylate] | 105.669% |
| CCc1cnc(N2CCN(C(=O)C(C)Cl)CC2)s1 (stereo not drawn) [7-C20, 2-chloro-1-[4-(5-ethyl-1,3-thiazol-2-yl)piperazin-1-yl]propan-1-one] | 76.6562% |
| CN1CCN(C(=O)Cc2cccc(NC(=O)CCl)c2)CC1 [5-C22, 2-chloro-N-{3-[2-(4-methylpiperazin-1-yl)-2-oxoethyl]phenyl}acetamide] | 111.968% |
| C=CC(=O)N1CC2(CCOCC2)C1c1ccco1 (stereo not drawn) [1-D22, 1-[1-(furan-2-yl)-7-oxa-2-azaspiro[3.5]nonan-2-yl]prop-2-en-1-one] | 111.384% |
